According to PubChem BioAssay AID1460 (National Center for Advancing Translational Sciences (NCATS), 2008):
The campaign covered roughly 270,000 compounds. About 5,800 (2.1%) were called active. The inconclusive results got no clear call from the source; some entries with a clear call stand among them for comparison. Calls follow the shape of the dose curve; as a rule, active = well fitted inhibition curve with a large enough effect; inconclusive = small, poorly fitted or top-dose-only effect; inactive = flat fitted curve, though single readings scatter. A potency beside an inconclusive call is a rough fit, not a confirmed value.
% is scaled to controls: 0 for no effect and ±100 for the full control effect; potency is read from the fitted curve at half-maximal effect; tags tell the direction and shape of the fitted curve.
Also: nearly all actives have a fitted effect of over 55% in size.

These compounds were tested against Microtubule-associated protein tau (Homo sapiens) (UniProt P10636) (assay: qHTS for Inhibitors of Tau Fibril Formation, Thioflavin T Binding). Conditions: recombinant tau K18 P301L (four-repeat tau fragment), heparin-induced fibrillization, ThT fluorescence; series mostly up to 57.4 µM; activity, negative = inhibition: at the top concentration.
Sequence of UniProt P10636 (P10636 whole entry, looked up, the tested form may be a part): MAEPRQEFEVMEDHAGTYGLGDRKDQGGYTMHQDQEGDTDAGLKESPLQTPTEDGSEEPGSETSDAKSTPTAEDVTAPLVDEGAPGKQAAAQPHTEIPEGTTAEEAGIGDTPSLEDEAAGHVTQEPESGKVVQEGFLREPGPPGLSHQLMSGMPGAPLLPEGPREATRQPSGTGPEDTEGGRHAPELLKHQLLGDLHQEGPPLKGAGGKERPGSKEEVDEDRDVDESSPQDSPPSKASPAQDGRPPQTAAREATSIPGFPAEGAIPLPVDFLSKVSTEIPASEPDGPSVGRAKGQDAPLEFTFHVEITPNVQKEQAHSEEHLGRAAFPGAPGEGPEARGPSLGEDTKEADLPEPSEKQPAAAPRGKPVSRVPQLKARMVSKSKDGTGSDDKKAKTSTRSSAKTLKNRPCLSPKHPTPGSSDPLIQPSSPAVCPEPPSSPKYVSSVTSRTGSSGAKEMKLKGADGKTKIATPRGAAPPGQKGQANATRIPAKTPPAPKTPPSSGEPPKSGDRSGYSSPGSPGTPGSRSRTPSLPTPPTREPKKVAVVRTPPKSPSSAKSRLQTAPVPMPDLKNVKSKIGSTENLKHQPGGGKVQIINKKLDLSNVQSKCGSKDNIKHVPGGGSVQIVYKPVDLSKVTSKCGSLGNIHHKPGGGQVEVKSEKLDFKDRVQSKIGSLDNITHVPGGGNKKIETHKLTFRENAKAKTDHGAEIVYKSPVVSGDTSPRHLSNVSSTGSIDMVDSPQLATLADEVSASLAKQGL
Summary of the method: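 Heparin-induced fibrillization of the P301L-mutant K18 repeat-domain fragment of human tau was followed by ThT binding in quantitative high-throughput format.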
In the case of `CC(=O)NCCC(=O)N1CCc2c([nH]c3ccccc23)C1c1cccc(Cl)c1` (stereo not drawn), the Potency is reported as inconclusive: 44.7 µM [inhibitor, single point]. For `O=C(CSc1nnnn1-c1ccc(O)cc1)Nc1ccc(N2CCOCC2)c(Cl)c1`, the Potency was inconclusive: 15.8 µM [inhibitor, partial curve]. In the case of `COc1c(OC(C)=O)ccc(/C=C/c2ccc3cccc(OCc4ccccc4)c3n2)c1[N+](=O)[O-]`, the Potency is reported as inconclusive: 5.01 µM [inhibitor, partial curve]. In the case of `CCN1C(=O)/C(=C2/C=Cc3ccccc3N2C)OC1=S`, the Potency is reported as active: 3.16 µM. `CCOc1ccc(NC(=O)Cn2cc(C(=O)c3ccccc3)c(=O)c3cc(OC)ccc32)cc1` was tested, and the Potency was inconclusive: 20 µM [inhibitor, partial curve]. With `COc1cc(/C=N/Nc2ccccc2C(F)(F)F)ccc1O` the Potency was inconclusive: 10 µM [inhibitor, partial curve]. For `O=C(OCc1nc2ccccc2s1)c1ccccc1O`, the Potency was inconclusive: 17.8 µM [inhibitor, partial curve, poor fit]. With `CCCCN(c1ccccc1)S(=O)(=O)c1cc2c3c(c1)C(C)C(=O)N3CCC2` (stereo not drawn) the “activity, negative = inhibition” value was inactive: -10.2%. In the case of `CC(C)(C)c1ccc(OC(=O)Nc2ccc(O)c(C(=O)O)c2)cc1`, the Potency is reported as inconclusive: 15.8 µM [inhibitor, partial curve]. With `COc1ccc(NC(=O)c2ccc(-c3nc(CSc4ccccc4)c(C)o3)cc2)c(OC)c1` the Potency was inconclusive: 3.16 µM [inhibitor, partial curve, poor fit]. `O=C(CCc1nnc2n(Cc3ccccc3Cl)c(=O)c3ccccc3n12)Nc1ccccc1` was tested, and the “activity, negative = inhibition” value was inactive: 10.6%. In the case of `O=C(/C=C/c1cccc([N+](=O)[O-])c1)NCCSc1ccccc1`, the Potency is reported as inconclusive: 22.4 µM [inhibitor, partial curve]. `COCCOc1cc(NC(=O)c2sccc2Oc2ccc([N+](=O)[O-])cc2F)c(Cl)cc1Cl` was tested, and the Potency was inconclusive: 17.8 µM [inhibitor, partial curve]. For `O=C(CSc1ccc(Cl)cc1)Nc1ccc(N2CCN(c3ccccc3)CC2)c(F)c1`, the Potency was inconclusive: 3.16 µM [inhibitor, full curve]. `O=C(COc1cccc2ccccc12)N/N=C/c1ccccc1OCc1ccc(C(=O)O)cc1` was tested, and the Potency was inconclusive: 20 µM [inhibitor, single point]. `COc1ccc(CNC(=O)C2CCN(S(=O)(=O)Cc3ccccc3)CC2)cc1` was tested, and the Potency was inconclusive: 4.47 µM [inhibitor, partial curve, poor fit]. `O=c1[nH]c(N/N=C/c2cc3c(cc2[N+](=O)[O-])OCO3)nc2ccccc12` was tested, and the Potency was inconclusive: 0.316 µM [inhibitor, full curve]. In the case of `Cc1oc(C(=O)O)cc1COc1ccc2c3c(c(=O)oc2c1C)CCC3`, the Potency is reported as inconclusive: 1.58 µM [inhibitor, full curve]. With `CCCN(CCC(=O)Nc1ccccc1F)CC1CC1` the “activity, negative = inhibition” value was inactive: -4.92%. For `C/C(=N\NC(=O)c1ccccc1F)c1ccc2c(c1)Nc1ccccc1S2`, the Potency was active: 2 µM. In the case of `COc1cc(/C=N/NC(=O)C(=O)NCc2ccco2)ccc1O`, the Potency is reported as inconclusive: 31.6 µM [inhibitor, single point]. For `Cc1cccc2cc3c(NC(=O)C(C)C)nn(C)c3nc12`, the Potency was inconclusive: 15.8 µM [inhibitor, single point]. For `CCCN1CCN(C(=S)Nc2ccccc2C(F)(F)F)CC1`, the “activity, negative = inhibition” value was inactive: -0.732%. `CCc1ccc(-n2c(CSc3nnnn3-c3ccccc3)nc3ccccc3c2=O)cc1` was tested, and the “activity, negative = inhibition” value was inactive: 3.55%. With `O=C(COC(=O)c1ccc(-c2cnc3ccccc3n2)cc1)c1ccccc1` the Potency was inconclusive: 0.794 µM [inhibitor, full curve]. With `CCC(=O)N(C1=C(NC(C)C)C(=O)c2ccccc2C1=O)C(C)C` the Potency was inconclusive: 11.2 µM [inhibitor, partial curve]. In the case of `Cc1ccc(/C=c2\s/c(=C(/C#N)C(=O)N3CCCC3)n(Cc3ccco3)c2=O)s1`, the Potency is reported as active: 15.8 µM. `CCOC(=O)C1CN(S(=O)(=O)c2ccc(OC)cc2)c2cc(S(=O)(=O)CC)ccc2O1` (stereo not drawn) was tested, and the “activity, negative = inhibition” value was inactive: -2.08%. For `O=C(CSc1nc2ccccc2c(=O)n1-c1ccc(F)cc1F)c1c[nH]c2ccccc12`, the Potency was inconclusive: 3.16 µM [activator, full curve]. With `Cc1nn(-c2ccc(N3CCCCC3)nn2)c(C)c1CCC(=O)Nc1cccc(F)c1` the Potency was inconclusive: 25.1 µM [inhibitor, single point]. `COc1cc(NS(=O)(=O)c2ccc(Nc3nc(-c4ccccc4)cs3)cc2)nc(OC)n1` was tested, and the Potency was inconclusive: 15.8 µM [inhibitor, partial curve]. In the case of `O=C(COc1ccc(/C=N/NS(=O)(=O)c2ccccc2)cc1)Nc1cccc(Cl)c1`, the Potency is reported as inconclusive: 15.8 µM [inhibitor, partial curve]. `Cc1ccc(Sc2c(C)nn(-c3ccccc3)c2OC(=O)CC(C)C)cc1` was tested, and the Potency was inconclusive: 22.4 µM [inhibitor, partial curve]. In the case of `Cc1scc(C(=O)N/N=C/c2ccc(OC(C)C)cc2)c1C`, the Potency is reported as inconclusive: 12.6 µM [inhibitor, partial curve]. In the case of `COc1ccccc1N1CCN(CC(O)COc2cccc3ccccc23)CC1` (stereo not drawn), the Potency is reported as inconclusive: 20 µM [inhibitor, single point] [middle of 4 runs]. In the case of `COC(=O)CSc1nc2cc(C)cc(C)c2cc1C#N`, the Potency is reported as inconclusive: 2.24 µM [inhibitor, full curve]. In the case of `COc1ccccc1C/C(N)=N/OC(=O)c1ccc(C)c([N+](=O)[O-])c1`, the “activity, negative = inhibition” value is reported as inactive: -17.9%. For `COC(=O)c1[nH]c2cccc(OC)c2c1NC(=O)CN1CCN(c2cccc(OC)c2)C(C)C1` (stereo not drawn), the Potency was inconclusive: 31.6 µM [inhibitor, partial curve]. In the case of `Cc1ccc2cc(C#N)c(SCC(=O)NNC(=O)Cc3ccccc3)nc2c1`, the “activity, negative = inhibition” value is reported as inactive: 7.89%. With `COc1cc(NC(=O)C2CCN(S(=O)(=O)c3c(C)noc3/C=C/c3c(C)cc(C)cc3C)CC2)cc(OC)c1` the “activity, negative = inhibition” value was inactive: 16.7%. `COc1ccc(OC)c(CNc2ncc(-c3ccc(Cl)cc3)n2C)c1` was tested, and the Potency was inconclusive: 17.8 µM [inhibitor, partial curve]. With `CCN(Cc1ccccc1)S(=O)(=O)c1ccc(F)c(C(=O)Nc2ccc(C(C)C)cc2)c1` the “activity, negative = inhibition” value was inactive: 1.25%. In the case of `Cc1ccc(C(=O)N/C(=C\c2ccco2)C(=O)NCCc2c[nH]c3ccccc23)cc1`, the Potency is reported as inconclusive: 39.8 µM [inhibitor, single point]. With `CC(NC(=O)CSc1nc2c(cc1C#N)CN(C)CC2)c1ccccc1` (stereo not drawn) the Potency was inconclusive: 15.8 µM [inhibitor, partial curve]. With `CCC(=O)N1CCc2cc(S(=O)(=O)NC(CC(C)C)C(=O)NCc3cccc(OC)c3)ccc21` (stereo not drawn) the “activity, negative = inhibition” value was inactive: -2.62%. For `Cc1ccc(NC(=O)NCc2c(-n3cccc3)sc3c2CCCC3)c(Cl)c1`, the “activity, negative = inhibition” value was inactive: -13%. In the case of `COc1cccc(C(=O)c2cn(CC(=O)Nc3ccc4c(c3)OCCO4)c3nc(C)ccc3c2=O)c1`, the Potency is reported as inconclusive: 25.1 µM [inhibitor, single point]. For `Cc1ccc(CNC(=O)CCCn2nc(C)n3c(cc4sccc43)c2=O)cc1`, the “activity, negative = inhibition” value was inactive: -4.22%. `O=C(O)c1cccc(NC(=O)c2cccc(S(=O)(=O)N3CCc4ccccc4C3)c2)c1` was tested, and the “activity, negative = inhibition” value was inactive: 1.89%. `Clc1ccc(-c2n[nH]c3c2CCC3)c(Cl)c1` was tested, and the Potency was inconclusive: 28.2 µM [inhibitor, partial curve]. With `CCc1cc2c(-c3ccccc3)cc(=O)oc2c2c1OCN(Cc1ccc(C)cc1)C2` the Potency was inconclusive: 25.1 µM [inhibitor, partial curve]. `CCOC(=O)c1c(NC(=O)c2cc(-c3ccc(Br)cc3)on2)sc(C)c1C` was tested, and the Potency was inconclusive: 39.8 µM [inhibitor, single point]. For `CC(Oc1ccccc1F)C(=O)N1CCC(c2nc3ccccc3o2)CC1` (stereo not drawn), the “activity, negative = inhibition” value was inactive: -5.67%. `CCOCC(=O)Nc1cccc(Br)c1` was tested, and the “activity, negative = inhibition” value was inactive: -4.43%. With `CCn1cc(/C=N\NC(=O)c2ccc3c(c2)c(C)c(C)n3Cc2ccccc2)c(C)n1` the Potency was inconclusive: 17.8 µM [inhibitor, partial curve]. With `Cc1cc(C)nc(NC(=O)CSc2nnnn2-c2ccccc2)n1` the “activity, negative = inhibition” value was inactive: -1.08%. With `Oc1c(C(Nc2ccccn2)c2ccccn2)ccc2cccnc12` (stereo not drawn) the Potency was inconclusive: 17.8 µM [inhibitor, partial curve]. `CCOc1ccccc1NC(=O)N1CCC(N2CCN(Cc3ccccc3)C(=O)C2=O)CC1` was tested, and the “activity, negative = inhibition” value was inactive: 4.71%. For `C/C(=C1/C(=O)N(c2ccc([N+](=O)[O-])cc2)N=C1c1ccccc1)N(C)C`, the Potency was inconclusive: 17.8 µM [inhibitor, partial curve]. With `CC(=O)OC[C@@H]1O[C@H](C/C=N\OC[C@@H](C)[C@H](OCc2ccccc2)C(C)C)C=C[C@@H]1OC(C)=O` the activity, negative = inhibition was inactive: -6.95% [at 11.5 µM]. In the case of `CCOc1ccc(C(=O)Nc2cc(-c3nc4ccccc4[nH]3)ccc2Cl)cc1[N+](=O)[O-]`, the Potency is reported as inconclusive: 14.1 µM [inhibitor, partial curve]. For `CCN(CC)S(=O)(=O)c1ccc(Cl)c(NC(=O)COC(=O)/C=C/c2ccc(O)c(OC)c2)c1`, the “activity, negative = inhibition” value was inactive: -6.69%. In the case of `Cc1ccc2oc(=O)n(CCCOc3ccccc3C)c2c1`, the Potency is reported as inconclusive: 25.1 µM [inhibitor, single point]. In the case of `COc1ccc(-c2csc(Nc3ccccc3)n2)cc1`, the Potency is reported as inconclusive: 17.8 µM [inhibitor, partial curve]. With `Cc1sc2ncnc(N3CCC(C)CC3)c2c1C` the “activity, negative = inhibition” value was inactive: 9.81%. `COc1ccccc1N=Nc1[nH]c2ccc(C)cc2c1O` was tested, and the Potency was inconclusive: 2.82 µM [inhibitor, full curve]. In the case of `O=C(NCCc1ccc(Cl)cc1)c1ccc2c(c1)N(Cc1ccccc1)C(=O)CS2`, the “activity, negative = inhibition” value is reported as inactive: -3.3%. `Cc1ccc(NC(=O)c2sc3nc[nH]c(=O)c3c2C)cc1C` was tested, and the Potency was inconclusive: 31.6 µM [inhibitor, single point].
